Measurements taken from PubChem BioAssay AID1745845 (National Center for Advancing Translational Sciences (NCATS), 2022).
The campaign covered roughly 360,000 compounds. About 2,600 (0.72%) were called active. Inconclusive results, whose numbers are uncertain, are shown with a selection of clear calls. Calls come from the whole dose curve; as a rule, active = well fitted inhibition curve with a large enough effect; inconclusive = small, poorly fitted or top-dose-only effect; inactive = no such curve, though single readings can be large or run the other way. Potencies of inconclusive entries are doubtful fits and often do not repeat.

Test: Primary qHTS for Inhibitors of ATXN expression; note: nearly all actives have a fitted effect of over 55% in size
Settings: HEK-293 ATXN2-luciferase reporter, luminescence, 24 h; activity change, negative = inhibition: at 57 µM (top of the series)
In short: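 qHTS (up to 57 uM final) was run with 24 h compound exposure of reporter cells at 37 °C. Each well was multiplexed: SteadyGlo luminescence measured ATXN2-luciferase expression after a fluorogenic Gly-Phe-AFC viability readout (25 uM final).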
% is set by controls: 0 for no effect and ±100 for the full control effect; potency is the fitted concentration of half-maximal effect; tags give direction and shape of the fitted curve.

| SMILES | Potency | activity change, negative = inhibition |
| --- | --- | --- |
| C=CCC[C@@H](Cc1ccc(F)cc1)C(=O)OC[C@H](Cc1c[nH]c2ccccc12)NC(=O)[C@@H](CC=C)CC(=O)N(CCO)Cc1ccccc1 | inconclusive: 4.47 µM [inhibitor, full curve, poor fit] | – |
| CCOCC(=O)Nc1c(C(=O)N2CCN(c3ncccn3)CC2)oc2ccccc12 | – | inactive: -5.04% |
| Cc1nc(-c2ccccc2)sc1CCNS(=O)(=O)c1ccc(Br)cc1 | inconclusive: 25.1 µM [inhibitor, single point] | – |
| CC(C)C1C(c2ccccc2)N(C)C(c2ccccc2)CC1(O)c1ccccc1 (configuration not stated) | inconclusive: 39.8 µM [inhibitor, single point] | – |
| O=C(/C=C/c1ccc(-c2ccccc2[N+](=O)[O-])o1)c1ccco1 | inconclusive: 37.7 µM [inhibitor, single point] | – |
| COc1ccc(-c2cnc3c(NC=O)cc(-c4ccccc4OC)cn23)cc1OC | active: 17.8 µM | – |
| C[C@H](CO)N1C[C@H](C)[C@H](CN(C)Cc2ccccc2)Oc2c(NC(=O)Nc3ccc(F)cc3)cccc2C1=O | inconclusive: 35.5 µM [inhibitor, partial curve, poor fit] | – |
| CCC(C)[C@H](NC(=O)N1CCn2c1nc1ccccc12)C(=O)NCCc1ccccc1 (some centres not stated) | – | inactive: -17.5% |
| COc1ccccc1-c1oc2ccccc2c1C#CC1(O)CCCCC1 | – | inactive: -13.3% |
| Cc1cc(-c2ccc(Cl)cc2)c(C#N)c(N)n1 | – | inactive: 5.54% |
| CN(c1ccccc1)S(=O)(=O)c1ccc(Cl)c(C(=O)NCC(c2ccco2)N2CCCC2)c1 (configuration not stated) | – | inactive: -8.35% |
| O=C(Nc1ccc(N2CCCCC2)cc1)c1ccccc1 | inconclusive: 39.8 µM [inhibitor, single point] | – |
| CN(C)c1c2ccccc2nc2c(F)c(F)c(F)c(F)c12 | inconclusive: 33.6 µM [inhibitor, single point] | – |
| CN(Cc1cccnc1)Cc1cn(Cc2ccccc2)nc1-c1ccc2c(c1)OCO2 | inconclusive: 0.267 µM [inhibitor, partial curve, poor fit] | – |
| Cc1ccc(-c2ccc(CN3C(C)C(=O)N(Cc4cn(Cc5ccco5)nn4)CCS3(=O)=O)cc2)cc1 (configuration not stated) | inconclusive: 39.8 µM [inhibitor, single point] | – |
| CCCCCCCCN1C(=O)[C@H](CC(=O)N2CCN(C(=O)OCC)CC2)C[C@@]2(C(=O)OCC)CCCC=C12 | inconclusive: 39.8 µM [inhibitor, single point] | – |
| COc1ccc(OC)c(CN2CCCC(C(=O)c3ccccc3SC)C2)c1 (configuration not stated) | inconclusive: 15.8 µM [inhibitor, partial curve, poor fit] | – |
